Results: publication PMC4336329 (PLoS ONE, 2015)
The whole screen tested about 310,000 compounds, of which about 14,000 (4.5%) showed an effect of 50% or more. Effects have a minus sign here. This is one part of the list.

biological target: human ether-à-go-go-related gene (hERG) potassium channel (human, UniProt Q12809); experiment: primary screen, population patch clamp on CHO cells stably expressing hERG
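Note: peak tail current of the secondary pulse compared with the same well before compound.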

human ether-à-go-go-related gene (hERG) potassium channel, sequence (Q12809 whole entry, looked up): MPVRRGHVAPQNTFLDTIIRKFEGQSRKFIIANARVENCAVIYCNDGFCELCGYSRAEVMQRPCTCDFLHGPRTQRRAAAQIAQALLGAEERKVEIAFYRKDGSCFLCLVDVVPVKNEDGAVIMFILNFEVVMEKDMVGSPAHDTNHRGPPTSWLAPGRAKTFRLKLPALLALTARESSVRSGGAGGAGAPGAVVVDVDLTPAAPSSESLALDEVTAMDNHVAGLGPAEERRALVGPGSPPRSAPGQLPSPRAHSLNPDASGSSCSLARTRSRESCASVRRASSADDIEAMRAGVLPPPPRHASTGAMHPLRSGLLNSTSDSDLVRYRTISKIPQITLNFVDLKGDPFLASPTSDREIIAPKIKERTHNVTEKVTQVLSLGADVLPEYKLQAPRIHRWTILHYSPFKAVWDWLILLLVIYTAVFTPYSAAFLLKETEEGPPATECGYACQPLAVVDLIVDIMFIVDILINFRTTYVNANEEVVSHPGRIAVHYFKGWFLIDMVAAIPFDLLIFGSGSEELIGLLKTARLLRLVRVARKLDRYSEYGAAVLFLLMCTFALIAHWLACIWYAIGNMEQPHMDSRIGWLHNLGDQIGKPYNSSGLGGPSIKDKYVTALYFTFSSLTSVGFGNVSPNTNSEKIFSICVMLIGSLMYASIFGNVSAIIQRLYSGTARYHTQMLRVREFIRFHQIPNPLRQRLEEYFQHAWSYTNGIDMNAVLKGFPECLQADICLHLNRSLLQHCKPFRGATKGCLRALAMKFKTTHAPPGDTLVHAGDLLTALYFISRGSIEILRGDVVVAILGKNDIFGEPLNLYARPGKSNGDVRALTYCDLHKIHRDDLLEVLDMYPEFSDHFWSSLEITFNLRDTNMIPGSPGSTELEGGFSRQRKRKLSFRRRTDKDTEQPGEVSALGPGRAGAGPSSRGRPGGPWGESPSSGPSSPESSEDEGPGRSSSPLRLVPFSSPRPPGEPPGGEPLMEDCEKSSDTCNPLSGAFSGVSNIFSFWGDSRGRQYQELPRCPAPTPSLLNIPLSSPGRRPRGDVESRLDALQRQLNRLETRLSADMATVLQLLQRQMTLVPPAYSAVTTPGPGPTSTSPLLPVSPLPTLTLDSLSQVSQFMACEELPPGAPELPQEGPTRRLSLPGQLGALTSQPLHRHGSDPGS

Compared with `COC(CNC(=O)c1cc(S(=O)(=O)N2CCc3ccccc32)ccc1F)OC`, `CC(=O)N1CCc2cc(S(=O)(=O)NC(C(=O)NC(C)c3ccccc3)C(C)C)ccc21` (stereo not shown) is higher in “hERG current change (%, negative = inhibition) at 10uM” value: 8.18% for the first, 25.6% for the second.

Going from `CC(C)[C@H](NC(=O)[C@@H]1Cc2c([nH]c3ccccc23)C2c3ccccc3C(=O)N21)C(=O)N1CCC[C@@H]1C(=O)O` (stereo partly shown) to `CCC(C)C(NC(=O)C1CCC(=O)N1C(=O)OCc1ccccc1)C(=O)NC(C(=O)N1CCCC1C(N)=O)C(C)CC` (stereo not shown), the “hERG current change (%, negative = inhibition) at 10uM” value falls from 16.9% to 10.9%.

Going from `Cc1cc(Cl)ccc1OCC(=O)N[C@@H](Cc1ccccc1)c1nc2ccccc2[nH]1` to `COc1ccccc1NC(=O)COc1ccc(/C=N/NC(=O)CSCc2ccc(Cl)cc2)cc1`, the “hERG current change (%, negative = inhibition) at 10uM” value rises from -18.5% to -4.1%.

Going from `Cc1cc(Cl)ccc1OCC(=O)NNC(=O)C1CCN(c2ncnc3sc(C)c(C)c23)CC1` to `CCOC(=O)C1CCN(Cc2cnc(Oc3ccc(Cl)cc3C)s2)CC1`, the “hERG current change (%, negative = inhibition) at 10uM” value falls from 5.64% to -33.3%.

First: Cc1ccc(NC(=O)Nc2ccccc2CC[N+](=O)[O-])cc1
Second: CCc1ccc(NC(=O)C(C)OC(=O)/C=C/c2cccc([N+](=O)[O-])c2)cc1 (stereo not shown)
The “hERG current change (%, negative = inhibition) at 10uM” value of the first is higher: 8.47% for the first, -9.12% for the second.

Going from `CC1(C)CC(=O)C=C(NC2CCCCC2)C1` to `CCOc1ccc(C(=O)NC2CCCCCCC2)cc1`, the “hERG current change (%, negative = inhibition) at 10uM” value falls from 9.87% to 4.13%.

Compared with `CCc1ccc(C2C(C#N)=C(N)Oc3cc(N)ccc32)cc1` (stereo not shown), `COc1ccc([N+](=O)[O-])cc1NC(=O)Cc1ccc(Cl)cc1` is higher in “hERG current change (%, negative = inhibition) at 10uM” value: -2.05% for the first, 3.93% for the second.

Compared with `COc1cccc2c1[C@@H]1CN(CCCCn3c(=O)[nH]c4c(sc5ncc(-c6ccccc6)nc54)c3=O)C[C@@H]1CO2.Cl`, `O=C(C1=C(O)C(=O)N(CCCN2CCOCC2)C1c1ccc(Cl)cc1)c1cc2ccccc2o1` (stereo not shown) is higher in “hERG current change (%, negative = inhibition) at 10uM” value: -67.6% for the first, 18.9% for the second.

Compared with `CCNC(=O)/C(=C/c1ccco1)NC(=O)/C=C/c1ccccc1`, `CCC(=O)NCCn1ccc2ccccc21` is lower in “hERG current change (%, negative = inhibition) at 10uM” value: 16.6% for the first, 5.88% for the second.

Compared with `COc1cc(/C=C/C(=O)Nc2ccccc2C(F)(F)F)cc(OC)c1OC`, `CCOC(=O)CC(NS(=O)(=O)c1ccc(OC)c(C)c1)c1cccc([N+](=O)[O-])c1` (stereo not shown) is lower in “hERG current change (%, negative = inhibition) at 10uM” value: -5.76% for the first, -24.8% for the second.

Compared with `C/C(Cl)=C/Cn1c(N2CCCC2)nc2c1c(=O)[nH]c(=O)n2C`, `CSc1nc(C)c2c(c1C#N)CCCC2` is higher in “hERG current change (%, negative = inhibition) at 10uM” value: -29.9% for the first, -4.98% for the second.

Going from `CCOC(=O)c1ccc(N(C(=O)c2ccco2)C(C(=O)NC2CCCCC2)c2ccncc2)cc1` (stereo not shown) to `COc1ccc(N(C(=O)c2ccco2)C(C(=O)NC2CCCCC2)c2cccs2)cc1OC` (stereo not shown), the “hERG current change (%, negative = inhibition) at 10uM” value falls from 9.01% to -8.89%.

Going from `COc1ccc(OC)c(NC(=O)CSc2nnc(Cc3cccn3C)n2-c2ccc(F)cc2)c1` to `Cc1occc1-c1nnc(SCC(=O)NCc2cccs2)n1-c1ccc(F)cc1`, the “hERG current change (%, negative = inhibition) at 10uM” value falls from -10.4% to -60.2%.

First: Cc1ccc(CNC(=O)Cn2cnc(S(=O)(=O)N3CCCCC3)c2)o1
Second: CC(C#N)(NC(=O)CN1CCN(S(=O)(=O)c2ccccc2C#N)CC1)C1CC1 (stereo not shown)
The “hERG current change (%, negative = inhibition) at 10uM” value of the first is lower: -2.35% for the first, 2.51% for the second.

Compared with `O=[N+]([O-])c1ccc(Cl)c(-c2ccc(/C=N/c3c(-c4ccco4)nc4ccccn34)o2)c1`, `O=C1C(=O)N(CCN2CCOCC2)C(c2ccc([N+](=O)[O-])cc2)/C1=C(/O)c1ccc2c(c1)OCO2` (stereo not shown) is higher in “hERG current change (%, negative = inhibition) at 10uM” value: 8.5% for the first, 17% for the second.

Going from `O=C(COC(=O)c1ncc(Cl)c(Cl)c1Cl)NCc1ccccc1` to `Cc1cccc(NC(=O)COC(=O)c2cccs2)c1C`, the “hERG current change (%, negative = inhibition) at 10uM” value rises from 2.42% to 18.4%.

Going from `Cc1c(C(C)C)c(=O)n(-c2ccc(S(=O)(=O)NC(C)C)cc2)n1C` to `Cc1csc(=O)n1CCC(=O)OCC(=O)Nc1ccc(Cl)cn1`, the “hERG current change (%, negative = inhibition) at 10uM” value falls from 11.3% to -21.9%.

Compared with `CCCCNC(=O)c1ccc(CS(=O)(=O)c2ccccc2OC)o1`, `CC(=O)Nc1ccccc1OCC(=O)c1cc(C)n(Cc2cccs2)c1C` is lower in “hERG current change (%, negative = inhibition) at 10uM” value: -2.53% for the first, -21% for the second.

Compared with `Cc1ccc(C)c(OCCCNC2CCCC2)c1C.O=C(O)C(=O)O`, `O=C(COC(=O)CCC1CCCC1)Nc1ccccc1Br` is higher in “hERG current change (%, negative = inhibition) at 10uM” value: -10.3% for the first, 5% for the second.

Compared with `O=C(O)Cc1csc(-c2ccc(F)cc2)n1`, `CC(=O)c1c(C)[nH]c(C(=O)NCc2ccccn2)c1C` is higher in “hERG current change (%, negative = inhibition) at 10uM” value: 11.5% for the first, 16.8% for the second.

Compared with `Cc1cc(OCCCn2ccnc2)ccc1C(C)C`, `Cc1ccccc1OCCn1c(=S)[nH]c2c(N)ncnc21` is higher in “hERG current change (%, negative = inhibition) at 10uM” value: 14% for the first, 21% for the second.

For `COc1cccc(S(=O)(=O)N2CCOCC2)c1`, the “hERG current change (%, negative = inhibition) at 10uM” value was -2.38%.
